Test results taken from PubChem BioAssay AID256 (DTP/NCI, 2004).
Inconclusive results and toxic doses are left out. Some entries of the source have several records that differ or are many. They are shown here; other results are not. The source may hold further records. The values listed for one entry are repeated measurements in other runs, samples, wells, individuals or studies. Marks in square brackets tell the records apart. Letters hold for one entry only. Residues, ends and D or L forms follow the SMILES beside them. *: point of attachment. Trt = c1ccc(C(c2ccccc2)(c2ccccc2)*)cc1; Cbz = O=C(OCc1ccccc1)*

System: CD2F1 mice, L1210 leukemia ip, survival T/C
Assay: NCI In Vivo Anticancer Drug Screen. Data for tumor model L1210 Leukemia (intraperitoneal) in CD2F1 (CDF1) mice
Details: higher = longer survival
Procedure, shortened: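 Implant tumor; dose compound or vehicle; measure endpoint in both groups; report treated divided by control.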

[1] = endpoint: median survival time, dose: 12.5 mg/kg/injection, schedule: Q04DX003 (ip), vehicle: saline

O=S(=O)(O)c1ccccc1.O=S(=O)(O)c1ccccc1.[NH-]C1CCCCC1[NH-].[Pt+2]
T/C (endpoint: mean survival time, dose: 2.0 mg/kg/injection, schedule: Q01DX009 (ip), vehicle: dextrose): 95 % of control and 175 % of control

COC(=O)C(CSC(c1ccccc1)(c1ccccc1)c1ccccc1)NC(=O)C(CC(N)=O)NC(=O)OCc1ccccc1 (stereo not drawn) (Cbz-Asn-Cys(Trt)-OMe; configuration not given here)
T/C (endpoint: median survival time, dose: 400.0 mg/kg/injection, schedule: Q01DX009 (ip), vehicle: distilled water + Tween-80): 97 % of control and 150 % of control

O=C(O)C(O)C(O)C(=O)O.[NH-]C1CCCCCC1[NH-].[Pt+2] (stereo not drawn)
T/C (endpoint: mean survival time, dose: 40.0 mg/kg/injection, schedule: Q04DX003 (ip), vehicle: dextrose): 113 % of control and 157 % of control

CC(C)=CC(=O)OC1C2C(C)=CC(=O)C(O)C2(C)C2C3(O)OCC24C(CC(=O)OC14)C(C)C3O (stereo not drawn)
T/C (endpoint: median survival time, dose: 4.0 mg/kg/injection, schedule: Q01DX009 (ip), vehicle: distilled water + Tween-80 + alcohol): 86 % of control and 180 % of control

CC1CC(C)(C)C(C[NH-])C1[NH-].[Cl][Pt+2][Cl] (stereo not drawn)
T/C (endpoint: mean survival time, dose: 6.25 mg/kg/injection, schedule: Q04DX003 (ip), vehicle: saline): 109 % of control and 180 % of control
T/C (endpoint: mean survival time, dose: 12.5 mg/kg/injection, schedule: Q04DX003 (ip), vehicle: saline): 117 % of control and 180 % of control

CN(C)c1ccc(N=Nc2ccc(S(=O)(=O)O)cc2)cc1.CN(C)c1ccc(N=Nc2ccc(S(=O)(=O)O)cc2)cc1.[NH-]C1CCCCC1[NH-].[Pt+2]
T/C [1]: 102 % of control and 155 % of control
T/C (endpoint: median survival time, dose: 25.0 mg/kg/injection, schedule: Q04DX003 (ip), vehicle: saline): 98 % of control and 185 % of control
T/C (endpoint: median survival time, dose: 50.0 mg/kg/injection, schedule: Q04DX003 (ip), vehicle: saline): 116 % of control and 181 % of control

O=P(Oc1ccccc1)(Oc1ccccc1)N(CCCl)CCCl
T/C (endpoint: mean survival time, dose: 200.0 mg/kg/injection, schedule: Q01DX009 (ip), vehicle: water): 120 % of control and 178 % of control

O=C1c2ccccc2C(=O)c2c(NCCNCCO)ccc(O)c21
T/C (endpoint: mean survival time, dose: 80.0 mg/kg/injection, schedule: Q01DX009 (ip), vehicle: suspension in saline): 107 % of control and 156 % of control

CC(C)OC(=O)c1cc([N+](=O)[O-])c(Sc2ncnc3nc[nH]c23)c([N+](=O)[O-])c1
T/C (endpoint: mean survival time, dose: 75.0 mg/kg/injection, schedule: Q01DX005 (ip), vehicle: other): 109 % of control and 164 % of control

N[C@H](C(=O)O)[C@@H]1CC(Cl)=NO1
T/C (endpoint: median survival time, dose: 12.0 mg/kg/injection, schedule: Q01DX009 (ip), vehicle: saline): 87 % of control, 114 % of control, 159 % of control

O=C1c2c(O)ccc(O)c2C(=O)c2c(NCCNCCO)ccc(NCCNCCO)c21
T/C (endpoint: median survival time, dose: 4.0 mg/kg/injection, schedule: Q01DX009 (ip), vehicle: acid diluted with saline): 100 % of control and 159 % of control

O=C(O)/C(O)=C(/O)C(=O)O.[NH-]C1CCCCC1[NH-].[Pt+2]
T/C (endpoint: median survival time, dose: 6.25 mg/kg/injection, schedule: Q04DX003 (ip), vehicle: saline): 108 % of control and 168 % of control
T/C [1]: 107 % of control and 183 % of control

CC(=O)NC(C=O)CC(C=O)CO (stereo not drawn)
T/C (endpoint: mean survival time, dose: 200.0 mg/kg/injection, schedule: Q04DX003 (ip), vehicle: saline): 104 % of control and 164 % of control

CC(C)(C)N1CC1CNC(=O)C(=O)NCC1CN1C(C)(C)C (stereo not drawn)
T/C (endpoint: mean survival time, dose: 25.0 mg/kg/injection, schedule: Q01DX009 (ip), vehicle: saline with Tween-80): 105 % of control and 156 % of control

Nc1nc(N)c2cc(CNc3ccc(C(=O)NC(CC(=O)O)C(=O)O)c(Cl)c3)ccc2n1 (stereo not drawn)
T/C (endpoint: mean survival time, dose: 20.0 mg/kg/injection, schedule: Q01DX001 (ip), vehicle: saline): 122 % of control and 168 % of control

CCOC(=O)Nc1cc(NC(C)/C(=N/O)c2ccccc2)c([N+](=O)[O-])c(N)n1 (stereo not drawn)
T/C (endpoint: median survival time, dose: 50.0 mg/kg/injection, schedule: Q01DX005 (ip), vehicle: Klucel (hydroxypropylcellulose) (HPC)): 103 % of control and 154 % of control

CC(C)CC(NC(=O)C(N)Cc1ccc(N(CCCl)CCCl)cc1)C(=O)O (stereo not drawn)
T/C (endpoint: mean survival time, dose: 16.0 mg/kg/injection, schedule: Q04DX003 (ip), vehicle: saline with Tween-80): 153 % of control [sample A] and 106 % of control [sample B]

CCCC(CC)(C[NH-])C[NH-].[Cl][Pt+2][Cl]
T/C (endpoint: mean survival time, dose: 3.12 mg/kg/injection, schedule: Q04DX003 (ip), vehicle: saline): 102 % of control and 155 % of control
T/C (endpoint: mean survival time, dose: 50.0 mg/kg/injection, schedule: Q04DX003 (ip), vehicle: saline): 123 % of control and 178 % of control
